Some of the results follow. The energies were worked out here from pooled read counts, against the library average; single values are noisy.
These sequences were tested against T1, Pho4 (S. cerevisiae) (UniProt P07270) (assay: relative binding free energy (BET-seq); higher = weaker binding). Settings: reference: library average.
T1 sequence: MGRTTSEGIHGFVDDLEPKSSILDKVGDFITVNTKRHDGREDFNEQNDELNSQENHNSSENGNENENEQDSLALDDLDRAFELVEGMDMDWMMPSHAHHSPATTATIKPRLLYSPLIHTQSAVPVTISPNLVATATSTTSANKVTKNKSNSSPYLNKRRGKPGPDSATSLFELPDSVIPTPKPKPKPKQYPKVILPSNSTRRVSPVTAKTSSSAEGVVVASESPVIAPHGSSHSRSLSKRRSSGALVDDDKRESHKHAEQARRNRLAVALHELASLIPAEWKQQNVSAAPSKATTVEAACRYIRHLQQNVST
In the case of TGGAACACGTGACGGG, the “relative binding free energy” value is reported as 0.25 kcal/mol.
In the case of AATGTCACGTGGCTTT, the “relative binding free energy” value is reported as 0.07 kcal/mol.
With TACGTCACGTGTAGTG the “relative binding free energy” value was 0.06 kcal/mol.
For AATTTCACGTGGTGGC, the “relative binding free energy” value was 0.27 kcal/mol.
In the case of TAGGGCACGTGTTACG, the “relative binding free energy” value is reported as -0.14 kcal/mol.
With ATTATCACGTGGGTGA the “relative binding free energy” value was 0.08 kcal/mol.
TGTTGCACGTGCTGTG was tested, and the “relative binding free energy” value was -0.01 kcal/mol.
For ATGTTCACGTGGACTG, the “relative binding free energy” value was 0.13 kcal/mol.
For AAATGCACGTGTTTGT, the “relative binding free energy” value was 0 kcal/mol.
In the case of ATAATCACGTGGGTTT, the “relative binding free energy” value is reported as 0 kcal/mol.
In the case of GTGTACACGTGGGGAT, the “relative binding free energy” value is reported as -0.01 kcal/mol.
TCTAGCACGTGGGTAA was tested, and the “relative binding free energy” value was -0.17 kcal/mol.
For GGGGCCACGTGTGAGT, the “relative binding free energy” value was 0.03 kcal/mol.
ATTACCACGTGAGTTT was tested, and the “relative binding free energy” value was 0.29 kcal/mol.
CAGAGCACGTGTAGGG was tested, and the “relative binding free energy” value was -0.2 kcal/mol.
For ATGTTCACGTGCGAGA, the “relative binding free energy” value was 0.31 kcal/mol.
GTTTGCACGTGGACGA was tested, and the “relative binding free energy” value was 0.06 kcal/mol.
For GGTTGCACGTGTGGGT, the “relative binding free energy” value was 0.09 kcal/mol.
ATAGGCACGTGGCAGA was tested, and the “relative binding free energy” value was -0.17 kcal/mol.
For GACAGCACGTGTGTGG, the “relative binding free energy” value was 0.11 kcal/mol.
With TATCACACGTGTATGT the “relative binding free energy” value was 0 kcal/mol.
ATGGTCACGTGGAATA was tested, and the “relative binding free energy” value was 0.13 kcal/mol.
For TATATCACGTGAAGGC, the “relative binding free energy” value was 0.36 kcal/mol.
GGTGACACGTGAAGAA was tested, and the “relative binding free energy” value was 0.35 kcal/mol.
GTCTTCACGTGTAGAT was tested, and the “relative binding free energy” value was 0.35 kcal/mol.
TGTGGCACGTGACGGG was tested, and the “relative binding free energy” value was 0.09 kcal/mol.
With TATATCACGTGTTTAT the “relative binding free energy” value was 0.11 kcal/mol.
In the case of AGTGTCACGTGCGTGG, the “relative binding free energy” value is reported as -0.09 kcal/mol.
With CATTTCACGTGAGATG the “relative binding free energy” value was 0.62 kcal/mol.
For TTTTTCACGTGTAGGA, the “relative binding free energy” value was 0.34 kcal/mol.
With GTCGTCACGTGTTAGA the “relative binding free energy” value was 0.1 kcal/mol.
GTAAGCACGTGTAGGC was tested, and the “relative binding free energy” value was -0.08 kcal/mol.
GGGTGCACGTGGGACT was tested, and the “relative binding free energy” value was -0.15 kcal/mol.
GATAGCACGTGGGGGA was tested, and the “relative binding free energy” value was -0.26 kcal/mol.
In the case of ATATTCACGTGTGTAA, the “relative binding free energy” value is reported as 0.22 kcal/mol.
In the case of TAGAGCACGTGTGGTC, the “relative binding free energy” value is reported as -0.25 kcal/mol.
TGCTTCACGTGTGTAT was tested, and the “relative binding free energy” value was 0.13 kcal/mol.
In the case of CATTGCACGTGTGATG, the “relative binding free energy” value is reported as 0.09 kcal/mol.
With AGGGTCACGTGGCCCG the “relative binding free energy” value was 0.06 kcal/mol.
With TATAACACGTGGTTAT the “relative binding free energy” value was -0.22 kcal/mol.
In the case of TGGTTCACGTGAGTCT, the “relative binding free energy” value is reported as 0.34 kcal/mol.
In the case of TGTCTCACGTGGGACA, the “relative binding free energy” value is reported as 0.34 kcal/mol.
TATATCACGTGAGGAT was tested, and the “relative binding free energy” value was 0.37 kcal/mol.
In the case of GTGGCCACGTGTGCGG, the “relative binding free energy” value is reported as -0.06 kcal/mol.
TGGTACACGTGTTGCT was tested, and the “relative binding free energy” value was 0.13 kcal/mol.
In the case of AGTATCACGTGGACAG, the “relative binding free energy” value is reported as 0.11 kcal/mol.
For TATGTCACGTGGTATA, the “relative binding free energy” value was 0.01 kcal/mol.
ATAATCACGTGAGGTA was tested, and the “relative binding free energy” value was 0.36 kcal/mol.
TAAAGCACGTGAATGG was tested, and the “relative binding free energy” value was 0.37 kcal/mol.
In the case of GGGAGCACGTGGGAGG, the “relative binding free energy” value is reported as -0.11 kcal/mol.
For GGTTGCACGTGTCGTG, the “relative binding free energy” value was 0.08 kcal/mol.
For ACCGGCACGTGGGAGG, the “relative binding free energy” value was -0.09 kcal/mol.
For TGATTCACGTGGAGGT, the “relative binding free energy” value was 0.39 kcal/mol.
For GGTTTCACGTGTAGTC, the “relative binding free energy” value was 0.25 kcal/mol.
GTTGGCACGTGAGTCG was tested, and the “relative binding free energy” value was 0.11 kcal/mol.
In the case of TGGTACACGTGGAAAT, the “relative binding free energy” value is reported as 0.2 kcal/mol.
For ATTGACACGTGTTAGG, the “relative binding free energy” value was 0 kcal/mol.
In the case of CGCTTCACGTGTGAGG, the “relative binding free energy” value is reported as 0.17 kcal/mol.
For GTGGCCACGTGCGGAG, the “relative binding free energy” value was -0.16 kcal/mol.
For CGCGGCACGTGAAGTA, the “relative binding free energy” value was 0.21 kcal/mol.
With TGGGTCACGTGCGGTT the “relative binding free energy” value was 0.1 kcal/mol.
GAAGGCACGTGTTAGC was tested, and the “relative binding free energy” value was 0.04 kcal/mol.
For TAAGCCACGTGTTTTG, the “relative binding free energy” value was 0.03 kcal/mol.
AAAGCCACGTGGAGGG was tested, and the “relative binding free energy” value was -0.15 kcal/mol.
For GGGTTCACGTGGTGAC, the “relative binding free energy” value was 0.33 kcal/mol.
In the case of CTGGCCACGTGGTGTT, the “relative binding free energy” value is reported as -0.23 kcal/mol.
For CGTGACACGTGCAGGG, the “relative binding free energy” value was -0.06 kcal/mol.
For GGAGGCACGTGAGATG, the “relative binding free energy” value was 0.22 kcal/mol.
GTGTTCACGTGTTTGA was tested, and the “relative binding free energy” value was 0.24 kcal/mol.
In the case of TGGTTCACGTGTTTGG, the “relative binding free energy” value is reported as 0.25 kcal/mol.
For GGGTGCACGTGGCAAG, the “relative binding free energy” value was -0.05 kcal/mol.
With AGTGTCACGTGTGCAG the “relative binding free energy” value was 0 kcal/mol.
With GGTCTCACGTGTGATA the “relative binding free energy” value was 0.19 kcal/mol.
With TCGTGCACGTGGGCGC the “relative binding free energy” value was -0.16 kcal/mol.
TTGAACACGTGCGTAG was tested, and the “relative binding free energy” value was -0.09 kcal/mol.
With TATAACACGTGTGGGT the “relative binding free energy” value was 0.1 kcal/mol.
For GTGTTCACGTGGTGGA, the “relative binding free energy” value was 0.29 kcal/mol.
GTAGTCACGTGGTTAG was tested, and the “relative binding free energy” value was 0.03 kcal/mol.
In the case of ACATTCACGTGTGGTT, the “relative binding free energy” value is reported as 0.1 kcal/mol.
In the case of ATAGGCACGTGGGAAG, the “relative binding free energy” value is reported as -0.23 kcal/mol.
In the case of ATGTACACGTGTAAGT, the “relative binding free energy” value is reported as 0.05 kcal/mol.
For GTGTGCACGTGCGGGT, the “relative binding free energy” value was -0.01 kcal/mol.
For TGCTTCACGTGGTGAA, the “relative binding free energy” value was 0.2 kcal/mol.
For ATCATCACGTGTGTAG, the “relative binding free energy” value was 0.15 kcal/mol.
In the case of AGAAGCACGTGGGGTC, the “relative binding free energy” value is reported as -0.14 kcal/mol.
AGCGACACGTGATGGG was tested, and the “relative binding free energy” value was 0.34 kcal/mol.
For AGTAGCACGTGTAGAG, the “relative binding free energy” value was 0.08 kcal/mol.
For GATTACACGTGTCTGG, the “relative binding free energy” value was 0.2 kcal/mol.
With GTAGACACGTGGGCAT the “relative binding free energy” value was -0.15 kcal/mol.
TGCATCACGTGTTTGG was tested, and the “relative binding free energy” value was 0.14 kcal/mol.
In the case of TGGTACACGTGGCTAT, the “relative binding free energy” value is reported as -0.06 kcal/mol.
In the case of TTAATCACGTGCGGAG, the “relative binding free energy” value is reported as 0.38 kcal/mol.
In the case of GTCGTCACGTGGCGGT, the “relative binding free energy” value is reported as 0.16 kcal/mol.
GGCCGCACGTGCGGGG was tested, and the “relative binding free energy” value was -0.18 kcal/mol.
In the case of TACTTCACGTGTGAGT, the “relative binding free energy” value is reported as 0.24 kcal/mol.
In the case of TACGTCACGTGTTTGA, the “relative binding free energy” value is reported as 0.03 kcal/mol.
In the case of TATTTCACGTGGGAGA, the “relative binding free energy” value is reported as 0.24 kcal/mol.
With AAGCGCACGTGGCGTG the “relative binding free energy” value was -0.19 kcal/mol.
For GTTTTCACGTGCGCGT, the “relative binding free energy” value was 0.18 kcal/mol.
GGTGTCACGTGTGCCT was tested, and the “relative binding free energy” value was 0.04 kcal/mol.
For AGTAGCACGTGAGTGA, the “relative binding free energy” value was 0.28 kcal/mol.
With CAGGTCACGTGTTGTG the “relative binding free energy” value was 0.06 kcal/mol.
CATAGCACGTGATGGT was tested, and the “relative binding free energy” value was -0.01 kcal/mol.
TAGTTCACGTGCTAGT was tested, and the “relative binding free energy” value was 0.26 kcal/mol.
With TGTGTCACGTGAGAGG the “relative binding free energy” value was 0.29 kcal/mol.
In the case of GGGTACACGTGGTGAA, the “relative binding free energy” value is reported as 0.09 kcal/mol.
GTACGCACGTGTGGGA was tested, and the “relative binding free energy” value was -0.04 kcal/mol.
For GGTGACACGTGGGTTT, the “relative binding free energy” value was -0.02 kcal/mol.
In the case of GGATTCACGTGGATGG, the “relative binding free energy” value is reported as 0.33 kcal/mol.
For TGTGGCACGTGGAGGA, the “relative binding free energy” value was -0.06 kcal/mol.
AGTTTCACGTGGTACG was tested, and the “relative binding free energy” value was 0.26 kcal/mol.
With TACATCACGTGGGTGA the “relative binding free energy” value was -0.08 kcal/mol.
For ACTGGCACGTGGTCTG, the “relative binding free energy” value was -0.13 kcal/mol.
In the case of CGAGTCACGTGGTAGT, the “relative binding free energy” value is reported as -0.05 kcal/mol.
With CTCTGCACGTGTTGTG the “relative binding free energy” value was -0.15 kcal/mol.

Reference: the BET-seq Pho4 binding data (Le et al. 2018)
